Experimental data as given in ChEMBL document CHEMBL4888484, “Replenishing the malaria drug discovery pipeline: Screening and hit evaluation of the MMV Hit Generation Library 1 (HGL1) against asexual blood stage Plasmodium falciparum ,using a nano luciferase reporter read-out” (2022).
About 540 (0.36%) of roughly 150,000 compounds showed an effect of 50% or more. Some of the results follow.

Test system: Plasmodium falciparum
Assay: Primary screen in NF54 nanoGlo assay, in single point, at 2uM, 72h; a lower Z score goes with more inhibition
Format: functional, Erythrocyte
Details: timepoint 72 hour

| SMILES | % Inhibition [%] | Z score |
| --- | --- | --- |
| COc1cc(OC)c2ncnc(N3CCC([C@@H]4CCCN4)CC3)c2c1 | -7 | 1.38 |
| Cc1ncccc1C(=O)Nc1ccc2c(c1)N(C)CCN(C)C2 | -16 | 1.37 |
| CC1CC2CCCCC2N1C(=O)Nc1cnns1 (stereo not drawn) | -10 | 1.41 |
| Cc1cccc(CNC(=O)[C@]2(C)Cn3cnc(C(=O)N4CCCCCC4)c3C(=O)N2C2CC2)c1 | -16 | 1.65 |
| O=C(c1cccc2ccccc12)N1CC2C3CCC(O3)C2C1 (stereo not drawn) | 0 | -0.01 |
| CC1=C(CCN2CCC3(CC2)C[C@@H]3C(=O)N2CCN(c3ccccc3)CC2)C(C)(C)CCC1 | 1 | -0.17 |
| C#Cc1cccc(NC(=O)N[C@H](CCO)c2ccccc2)c1 | 5 | -0.92 |
| C[C@@H](c1ccccn1)N(Cc1ccccc1)C(=O)NC1CC1 | 7 | -1.16 |
| O=C(CNC(=O)C(F)(F)[C@H](O)c1ccccc1)NC1CCCC1 | -8 | 1.52 |
| CCCN(CCC(=O)N1CCNCC1)S(=O)(=O)c1ccc(CC)cc1 | -3 | 0.52 |
| CN1C[C@]2(CCN(c3cc(N4CCC(O)CC4)ncn3)C2)OC1=O | -14 | 1.28 |
| CCC(=O)NS(=O)(=O)Cc1cc(OC)ccc1Br | -12 | 2.27 |
| C[C@H](NC(=O)c1cc(=O)n(-c2ccccc2)[nH]1)C1=CCCCC1 | -14 | 1.75 |
| O=C(CN1C(=O)NC2(CCS(=O)(=O)CC2)C1=O)Nc1cccc(Cl)c1 | 10 | -1.15 |
| Cn1cc([C@H]2C[C@@H]2C(=O)N2CCc3c(C#N)cccc32)cn1 | -20 | 2.78 |
| CCC(CC)N1C[C@]23C=C[C@H](O2)C(C(=O)N2CCNC(=O)CC2)C3C1=O (stereo partly drawn) | 3 | -0.37 |
| O=C(CN1CCO[C@@H](CC(c2ccccc2)c2ccccc2)C1)NC1CC1 | -10 | 1.85 |
| COc1cccc(C2C(NCc3nc(C)c(C)o3)CCN2C2CC2)c1 (stereo not drawn) | -13 | 1.26 |
| CC(C)(C)OC(=O)N1CC2CC1C2NC(=O)C1CC=CCC1 (stereo not drawn) | 14 | -1.67 |
| O=C(NCc1ccno1)c1cnn(CC2CCCC2)c1 | -15 | 1.68 |
| Cc1ccc2nc(-c3ccc(F)cc3)c(CN[C@H]3CCOC(C)(C)C3)cc2c1 | -3 | 0.6 |

| SMILES | % Inhibition [%] | Z score |
| --- | --- | --- |
| COc1ccc(S(=O)(=O)N2CCNC[C@](C)(F)C2)cn1 | -6 | 1.13 |
| C[C@H](OC(=O)COc1cccc(Cl)c1)C(=O)N1CCc2ccccc21 | -7 | 0.93 |
| CCOc1cc(C(=O)NC[C@H]2CN(c3nncs3)CCO2)n[nH]1 | -5 | 0.57 |
| COCCN(Cc1ccc(OC)c(OS(=O)(=O)c2ccc(F)cc2)c1)C(=O)c1ccco1 | -7 | 0.94 |
| NC(=O)C1CCN(c2ccc(NC(=O)c3cccc(Br)c3)cc2S(=O)(=O)N2CCOCC2)CC1 | -2 | 0.22 |
| CONC(=O)C=C(C)c1ccccc1Cl | -10 | 1.83 |
| CCN(c1ccncc1)S(=O)(=O)CCO[C@H]1CCOC1 | -6 | 0.86 |
| O=C(NS(=O)(=O)c1cccc2c1OC(F)(F)O2)C1C2CCCCC21 (stereo not drawn) | -13 | 2.02 |
| Cc1cc(NC(=O)CN2C(=O)CCC2=O)sn1 | -4 | 0.75 |
| CN(CC(=O)Nc1ccc(Cl)cc1)C(=O)C1CCC1 | 7 | -0.77 |
| CC(C)COCC(O)CN1CCOC(CN(CC(C)C)C(=O)c2ccc(F)cc2)C1 (stereo not drawn) | -19 | 1.81 |
| COc1ccc(CCC(=O)N2CC[C@H](Oc3ccc(C)nn3)C2)cc1 | -7 | 1.13 |
| CC1=C(C(=O)N2CCN(C(=O)c3ccc4[nH]cnc4c3)CC2)CCC1 | -3 | 0.52 |
| CCN(CC)C(=O)N1CCC(C(=O)Nc2cc(CN(C)C)ccn2)CC1 | 2 | -0.36 |
| NS(=O)(=O)C1(c2nc(-c3ccc(Br)o3)no2)CC1 | -11 | 1.82 |
| Cc1nn(C)c2c1N(C(=O)OC(C)(C)C)C[C@H](C)N2 | 3 | -0.4 |
| Cc1ccnc(NC(=O)[C@H]2CCCO2)c1Br | -5 | 0.92 |
| Cc1nc(C)c(Cn2cncc(Br)c2=O)s1 | -1 | 0.14 |
| CCc1nnc(C(=O)N[C@H]2CCS(=O)(=O)C3(CCC3)C2)s1 | -13 | 1.36 |
| CC1CCN(CC(O)CN2CCCC2c2cnn(C)c2)CC1 (stereo not drawn) | -6 | 0.83 |
| CCN1CCO[C@H](C(=O)Nc2cccc(-n3c(C)c[nH]c3=O)c2)C1 | -21 | 3.91 |

| SMILES | % Inhibition [%] | Z score |
| --- | --- | --- |
| CC(=O)N1CCC(C(=O)Nc2cccc(-c3noc(C4CCCC4)n3)c2)CC1 | -11 | 1.9 |
| CCCN1CCC2(CC1)Nc1ccccc1N(CC(C)(C)C)C2=O | 7 | -1.02 |
| CC(C)c1nsc(N2CCC(O)(c3ncnn3C)CC2)n1 | 6 | -1.1 |
| Cc1cnc(C2CC2)n1C1CCN(C(=O)[C@H](C)Oc2ccccc2)CC1 | -8 | 1.05 |
| COCCN(Cc1ccsc1)C(=O)NCc1ccc(F)cc1 | -13 | 1.85 |
| COc1ccc(CN(C(=O)NC[C@H]2CCCO2)C2CCCC2)c(OC)c1OC | -2 | 0.26 |
| CC[C@@H](C(=O)Nc1ccccc1C(F)(F)F)n1nc(C)c2c(C)onc2c1=O | 4 | -0.4 |
| CCn1cnc2cc(-c3noc(-c4cc5ccccc5[nH]4)n3)ccc21 | 4 | -0.52 |
| Cc1cnc2c(Cl)c(C(=O)NCCN3CCCC[C@@H]3CO)nn2c1 | -9 | 1.44 |
| C[C@H]1CCCCN1Cc1ncnn1Cc1cccc(Cl)c1 | -6 | 0.75 |
| CO[C@H]1CN(C2CCN(C(=O)Nc3ccccc3)CC2)[C@H]1c1ccncc1 | 3 | -0.38 |
| Cc1ccc(OC2CCN(S(C)(=O)=O)CC2)nn1 | -13 | 2.51 |
| COC(C)(C)C(=O)[C@H](CC#CCN1CCOCC1)C(=O)c1ccccc1 | -4 | 0.5 |
| C[C@@H]1CN(Cc2cnc3c(-c4ccccc4)cnn3c2)[C@@H](C)CN1 | 2 | -0.29 |
| c1ccc2ncc(Cn3cnnc3)cc2c1 | 15 | -2.01 |
| Cc1cc(C(=O)n2nccc2N)c(C)n1C1CC1 | 0 | -0.02 |
| COc1ccc(CCN2C[C@H](O)C(C)(C)COCCC[C@H]3CN(Cc4ccc(S(C)(=O)=O)cc4)CC[C@H]3CC2=O)cc1 | -6 | 0.97 |
| CC(C)=CCN1C(=O)[C@@H]2CC[C@H]1CN(C(=O)c1ccc[nH]1)C2 | -12 | 2.63 |
| O=C(NC[C@H](NC(=O)N1CCOCC1)C1CCCC1)N1CCOCC1 | -5 | 0.86 |
| C[C@@H]1CN(c2ncnc(-c3ccccc3)n2)CCN(C2CC2)C1 | -16 | 1.73 |
| COc1ccc(-c2nc(N3CCC[C@H]3c3ccc(OC)cc3)[nH]c(=O)c2C#N)cc1 | 9 | -1.84 |

| SMILES | % Inhibition [%] | Z score |
| --- | --- | --- |
| COC[C@H]1[C@H](NC(=O)CCc2ccc(F)c(F)c2)[C@H]2CCO[C@H]21 | -1 | 0.13 |
| CCCN(Cc1c(C(C)C)nn(-c2ccccc2)c1Oc1cccc(F)c1)C(=O)C1CCC1 | -4 | 0.66 |
| CC(C)(C(=O)NCCc1ccccn1)c1nccs1 | -7 | 0.92 |
| O=S(=O)(c1ccc(Br)c(S(=O)(=O)N2CCCCC2)c1)N1CCCCC1 | -6 | 1.07 |
| COC(C)(C)CNC(=O)N[C@@H](CO)c1cc(F)c(F)c(F)c1 | -4 | 0.67 |
| O=C(Nc1nc2c(s1)CCC2)C1CCC1 | -9 | 1.19 |
| COc1ccc(CC(=O)Nc2c[nH]c(=O)nc2O)cc1 | 0 | -0.03 |
| CC(C)(CO)NC(=O)c1cnn(-c2ncc3c(n2)-c2ccccc2CCC3)c1C1CC1 | -16 | 2.25 |
| CN(CCCNS(C)(=O)=O)c1cccc2c1CCCN2CCCNS(C)(=O)=O | -6 | 0.57 |
| Cc1cccc(S(=O)(=O)N[C@H](C(=O)O)C(C)C)c1Cl | -8 | 1.1 |
| C[C@@H](C1CCCCC1)n1c(CN)n[nH]c1=O | -6 | 0.58 |
| CC[C@H](NC(=O)c1coc(Cn2cnc3ccccc32)n1)c1ccc(C)cc1 | 11 | -1.42 |
| Cc1ccc(C)c(-n2nc(C3CCOCC3)nc2CCc2cnccn2)c1 | -14 | 1.33 |
| Cc1nc(C(C)(C)NCc2nnnn2C2CC2)sc1C | 8 | -1.07 |
| COc1cccc([C@H](C)N(C)Cc2nc(-c3cccs3)no2)c1 | -9 | 1.11 |
| CCN1C[C@H](NC(=O)COCc2ccc(OC)cc2)C(C)(C)C1 | -8 | 0.88 |
| CC(Nc1ccc2c(c1)NC(=O)C(C)O2)C(=O)N1CCOCC1 (stereo not drawn) | -4 | 0.73 |
| Cn1cc([C@@H](NC(=O)COc2ccc(F)cc2)C2CC(O)C2)cn1 (stereo partly drawn) | -19 | 1.89 |
| CNC(=NCC1(Cc2ccccc2)CC1)NC | -4 | 0.7 |
| CC(C)n1nccc1-c1nnc(NC(=O)c2cccs2)o1 | -16 | 3.05 |
| Cc1ccc(CN2CC[C@H](c3sccc3C)[C@@H](O)C2)cc1 | -11 | 2.3 |
